Measurements published in the supplement of paper PMC3334620.
Whole data set: some 33,000 sequences, median “E-score (-0.5 to 0.5)” near -0.054, cut for the highest 2% near 0.35. The list shows a part of the results.

These sequences were tested against T1, Stb5 (UniProt P38699) (assay: PBM E-score (8-mer binding enrichment) (E-score (-0.5 to 0.5)); higher = stronger / more preferred TF binding; most listed sequences are background and not binding sites). Details: protein concentration: 200 nM; construct: GST-full length.
T1 sequence: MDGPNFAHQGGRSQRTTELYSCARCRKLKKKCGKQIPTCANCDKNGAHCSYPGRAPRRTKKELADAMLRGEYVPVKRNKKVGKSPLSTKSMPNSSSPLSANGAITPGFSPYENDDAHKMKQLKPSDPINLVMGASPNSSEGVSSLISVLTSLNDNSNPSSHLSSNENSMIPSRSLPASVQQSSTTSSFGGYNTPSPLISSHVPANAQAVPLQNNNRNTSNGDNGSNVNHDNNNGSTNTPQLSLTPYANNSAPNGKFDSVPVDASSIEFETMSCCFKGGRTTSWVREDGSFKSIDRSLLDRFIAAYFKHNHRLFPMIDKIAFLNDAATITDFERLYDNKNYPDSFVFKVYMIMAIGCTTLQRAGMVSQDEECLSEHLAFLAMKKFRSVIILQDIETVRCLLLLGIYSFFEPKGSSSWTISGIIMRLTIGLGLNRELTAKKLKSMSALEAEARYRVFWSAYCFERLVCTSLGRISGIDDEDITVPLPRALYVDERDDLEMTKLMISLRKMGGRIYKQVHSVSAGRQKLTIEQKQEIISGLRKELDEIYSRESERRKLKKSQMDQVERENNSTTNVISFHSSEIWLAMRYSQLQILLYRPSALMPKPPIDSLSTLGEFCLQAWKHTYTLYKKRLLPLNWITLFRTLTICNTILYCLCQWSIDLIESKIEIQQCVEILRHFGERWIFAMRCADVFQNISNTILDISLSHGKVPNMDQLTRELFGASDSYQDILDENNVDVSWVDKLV
Procedure, shortened: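 For each ungapped eight-base word taken together with its reverse complement, the Universal PBM Analysis Suite assigned an E-score. Binding data came from GST-tagged yeast transcription factors, applied at about 100-200 nM, on universal all-10-mer Agilent arrays made double-stranded by primer extension. Fluorescent anti-GST marked bound protein, and scans were normalised with masliner.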

Sequence | PBM E-score
CCCAGGGC | -0.111
GGTCAAAA | -0.043
CATGTGAA | -0.0828
GATAACAA | 0.0139
GATGGCCC | -0.0196
GAAGACTA | -0.219
GCTACTTA | -0.238
ATGGCGTA | -0.172
ACTAACGG | 0.166
AGGGTGGC | 0.0159
CGCTCGAG | 0.0191
GCGTCCCC | -0.0604
CATGGTGA | 0.0525
ACTCGCCT | -0.178
CTACTCCA | -0.107
GACTGAGA | -0.148
ACCGACCT | 0.287
CTCCACGC | -0.0632
CCCTAGTA | 0.0857
GTAGGCCA | -0.106
CAGTGGCG | -0.0241
AGATGCTC | 0.0113
ACGTGTTG | -0.146
CGTCCCAG | -0.114
CGACATAA | 0.0929

Sequence | PBM E-score
GAAGTTGC | -0.188
ACCGATGG | 0.269
AGCTATAC | 0.202
CTCGCAGC | -0.161
AGTCGGCG | 0.239
GAAGTTTA | 0.145
ACTCGTGC | -0.0294
GAGGGATC | -0.108
GACGACTC | -0.141
ACCTTAGT | -0.162
CCCAACGA | -0.0919
CCAACGCA | 0.00504
TAAGCAGA | -0.126
AGACCTCA | -0.215
AACCTGAC | -0.256
AGGACTCA | -0.225
AGGTACTC | -0.242
CACGATCA | -0.266
CGCATGCC | 0.0316
ACCTGCGG | 0.234
AATGTCCT | -0.063
ATGGCTCA | -0.329
AGCTGAAA | -0.0824
ATGTGGGA | -0.15
GAACATTC | -0.161

Sequence | PBM E-score
GCTGTACA | -0.156
AATTTGCG | 0.00674
CGAGGGTC | 0.00967
GAGGCGAA | -0.0203
CTTGACAA | 0.0185
GGCCTGAC | 0.204
ACATTAGG | -0.128
GACAAGCA | -0.0877
AAGCTCGT | -0.157
GAGCGAGA | -0.0607
ATTCTTTC | 0.0717
CACTGGAA | -0.276
ACTGGAAA | -0.0915
CCGCAGGA | 0.163
CGAGCCTC | -0.0223
CGCCGATA | 0.36
ACGCCTCT | -0.306
ACGAAGGC | -0.132
ACCGAAGC | 0.155
ATCGCGCG | 0.179
AGGCGACC | -0.199
GATCATCA | -0.169
TCACCTGA | -0.147
ATCGATCA | -0.103
ACAGAAGT | -0.107

Sequence | PBM E-score
CCGTAAAC | 0.205
CCATGGAC | -0.0874
GCCAGCCC | -0.00461
ACGAAGGA | -0.113
ACTGTAGG | -0.137
CTTACGTC | -0.226
TCATTAAA | 0.093
AAAGGTCG | -0.012
TCTTAAAA | -0.144
GTTATGGA | -0.0466
CTTAGTAA | -0.126
TCCATGCA | 0.013
AGCACGCT | -0.296
ACTCTACA | -0.153
CACTCCGA | 0.242
CCTCTGCC | -0.0836
ACCAATAG | -0.105
AATGCCCG | 0.362
AAGCACCA | -0.12
AGTGCTTG | -0.237
CGAATGTC | 0.0399
ATTTGCCG | 0.31
AACATACG | 0.00618
CTCTCCTA | -0.269
GAATAGCC | 0.102

Sequence | PBM E-score
GAAGGACC | 0.123
AGTGGTTG | -0.0565
ACGGCGTG | 0.208
CGAGTTTC | -0.0887
GAGGCTAC | -0.189
AATAGGCA | 0.00142
ATGAACAA | -0.0777
AACAGCGA | 0.235
AGCTGTAT | -0.208
GGACGCGA | -0.168
TAGCAACA | -0.0498
CCGCTAGC | 0.224
ACCTTACC | -0.13
CGTATCCA | -0.225
GAATAGTA | -0.0545
AACACGCC | 0.0462
GGATAAGA | -0.0778
AGTAAATC | -0.1
GAAATGTC | 0.0422
AAGATTGA | -0.153
CGGACAAG | 0.193
CACTCCCG | -0.00235
CTAAGAAG | -0.115
GAGCGACC | -0.0787
CAAACCCA | -0.274

Sequence | PBM E-score
AGCATTAG | -0.0678
ATCGTTGA | -0.11
ATCGTCAA | -0.12
CACCTTAG | -0.116
ACCCACGT | -0.257
CTCTCTGC | -0.168
AAACGGTA | 0.261
ACATTTAT | -0.0897
GCTCTTTA | 0.0664
ACTGAGAA | 0.0797
GCAACCCC | 0.201
ACGGACTC | 0.297
CGGGATTA | 0.471
ATAAATGG | -0.128
ATGACGAG | -0.0671
TACTGGGA | -0.155
CGAAAGAA | 0.0281
AGTGCGAC | 0.0565
AGCGAGGG | -0.189
ACCCGAGG | -0.086
TGTGTTAA | -0.145
ATGGTTTA | -0.0842
CCATTATA | 0.0945
CTCGTTGC | -0.218
GTACACAA | -0.136

Sequence | PBM E-score
GTACAACA | -0.126
CGCGTTCA | -0.00418
ATACATGC | 0.06
CATGCCGG | 0.344
GCAGGAAC | -0.0959
CTATGACA | 0.0495
CGTCTTGA | 0.0557
ACGATGGC | -0.146
AACAGAAA | -0.0585
AATTATCC | 0.224
ACATGGTA | -0.0696
ACGCCATC | -0.0194
CAAGGGCA | -0.356
ATGAGACC | 0.0282
ATCAAAGG | -0.132
ATTCATGA | -0.0343
CCACCGAA | 0.117
GTGTAATA | 0.209
ATGGCCAA | -0.167
GCGGGCCA | 0.0443
CTCTTGTC | -0.198
AGATTTAG | 0.0604
TACATTAA | -0.206
ATACCAAA | -0.0367
CCCCGCCC | 0.43

Sequence | PBM E-score
AACTTCTC | -0.137
CCGATTTC | 0.21
ACAGATAG | -0.145
ATGCACTC | -0.139
GCTGGGTA | -0.213
AACAGTAT | -0.21
CCATTGAG | -0.00205
ACTTATGG | 0.0742
AACGTTCC | 0.013
GGAGTTTA | 0.362
CTTGAGAA | -0.194
ATTTCGTA | -0.117
GTTGCCTA | -0.199
CTGCCGCC | 0.198
GACCATCA | 0.0409
CAAGTTGA | -0.113
AAAGTTAA | 0.0914
ACTTATAC | 0.166
AAGTAAGT | -0.0931
AACGGCAG | 0.107
GATCTCGC | -0.131
CAATTCTC | 0.0208
ATTGTGTC | -0.0554
GTTGGACA | -0.179
ATAGAAAG | 0.0164

Sequence | PBM E-score
ATACCGCG | 0.33
ATTTATTG | -0.0662
GAGCGCTC | -0.0134
TACTATGA | -0.12
AGTCGGAC | 0.398
ACTTCCCG | 0.144
AGTTAGGA | 0.0545
GGCTAGTA | -0.139
ACCCTCGT | -0.181
AATTGCGC | 0.117
CATGGTAA | -0.085
CTTTCCAC | 0.0653
ACGTATAC | -0.162
GTGCGACA | 0.0522
AGGAATGA | -0.0687
ACGCAAGT | -0.0285
AGTTAGTC | 0.168
CGCGGGAC | 0.266
CATGGCAC | 0.166
